According to PubChem BioAssay AID504466 (National Center for Advancing Translational Sciences (NCATS), 2011):
About 4,200 (1.3%) of roughly 330,000 compounds were called active. Inconclusive results, whose numbers are uncertain, are shown with a selection of clear calls. The call rests on the fitted dose curve; in most records, active means well fitted activation curve with a large enough effect; inconclusive means small, poorly fitted or top-dose-only effect; inactive means no such curve, though single readings can be large or run the other way. Where the call is inconclusive, the potency comes from a doubtful curve fit.

Experiment: qHTS screen for small molecules that induce genotoxicity in human embryonic kidney (HEK293T) cells expressing luciferase-tagged ELG1; further: nearly all actives have a fitted effect of over 60% in size; on activity change, positive = activation: % of control where 0% means no effect
Settings: HEK293T ELG1-luciferase reporter, luminescence, 16 h; series mostly up to 46 µM; activity change, positive = activation: at the top concentration
How it was run: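 ELG1-luciferase HEK293T cells, 2,000/well; compound pinned in; 16 hr, 37 °C, 5% CO2; ONE-Glo, 30 min RT; luminescence on CCD imager.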
Potency means the concentration at half of the fitted maximal effect; tags describe the fitted curve by direction and shape.

Row | Structure (SMILES) | Potency | activity change, positive = activation
1 | CN(C)/C=C1\C(=O)N(c2ccc(Cl)cc2)CS1(=O)=O | inconclusive: 13 µM [activator, partial curve] | –
2 | CCn1c(SCC(=O)N2CCCCC2)nc2c(c1=O)SCC2 | – | inactive: -5.58%
3 | Nc1ccc2oc(-c3ccccc3Cl)cc(=O)c2c1O | active: 16.4 µM | –
4 | O=C(O)C1CCCN1c1ncnc2c1oc1ccccc12 (stereo unspecified) | inconclusive: 20.6 µM [activator, single point] | –
5 | c1ccc(-c2noc(COc3ccc4c(c3)OCO4)n2)cc1 | active: 9.2 µM | –
6 | COc1cccc(C(=O)Nc2ccc3ccccc3c2)c1 | inconclusive: 0.164 µM [activator, full curve, poor fit] | –
7 | CCOC(=O)N1CCN(S(=O)(=O)N2CCCC(C(=O)NCCc3ccc(C)cc3)C2)CC1 (stereo unspecified) | – | inactive: -4.81%
8 | COc1ccc2[nH]c3nc(SCc4nnc(-c5ccc(C)cc5)o4)nnc3c2c1 | inconclusive: 29.1 µM [activator, single point] | –
9 | c1ccc2c(c1)oc1c(N3CCN(Cc4ccc5c(c4)OCO5)CC3)ncnc12 | active: 18.4 µM | –
10 | Cc1nc2ccc(C(=O)OCc3ccccc3Br)cc2nc1C | inconclusive: 18.4 µM [activator, single point] | –
11 | Cc1ccc2c(c1)-c1nc3ccccc3cc1C2=NC1CCCCC1 | inconclusive: 2.31 µM [activator, single point] | –
12 | O=C(O)COc1ccc(S(=O)(=O)NCCc2ccccc2)cc1 | – | inactive: -7.32%
13 | COc1cc(OC)c(C(=O)Nc2cccc(C(C)=O)c2)cc1OC | inconclusive: 11.2 µM [activator, partial curve, poor fit] | –
14 | CCCc1cc(=O)[nH]c2nnc(SCC(=O)Nc3cccc(NC(C)=O)c3)n12 | – | inactive: 2.27%
15 | CN(C(=O)c1ccccc1C(=O)OCC(=O)c1ccc(F)cc1)c1ccccc1 | – | inactive: -1.25%
16 | CCOC(=O)c1cn(Cc2ccc(C)cc2)nn1 | – | inactive: 2.66%
17 | Cc1ccc(C2=NN(C(=S)Nc3ccccc3)C(c3ccco3)C2)cc1 (stereo unspecified) | inconclusive: 25.9 µM [activator, partial curve, poor fit] | –
18 | COc1cc(OC)cc(C(=O)O/N=C(\N)c2ccccn2)c1 | inconclusive: 18.3 µM [activator, partial curve] | –
19 | COc1cc(C(=O)NCCOc2cccc3cccnc23)cc(OC)c1OC | – | inactive: -11.3%
20 | Fc1ccccc1CSc1nnc(-c2ccccc2)o1 | active: 8.2 µM | –
21 | O=C1Nc2cc(C(=O)NCCCN3CCOCC3)ccc2S/C1=C/c1ccccc1F | – | inactive: -4.33%
22 | C=CCn1c(C)cc(C(=O)CN2NS(=O)(=O)c3ccccc3C2=O)c1C | active: 20.6 µM | –
23 | Cc1ccccc1CN1CCN(CC(=O)NCc2ccccc2)CC1 | – | inactive: -2.23%
24 | Cc1cc(-c2nnc3n2N=C(c2ccccc2)CS3)n[nH]1 | inconclusive: 20.6 µM [activator, partial curve, poor fit] | –
25 | O=C(NCCSCc1ccco1)c1ccc(=O)[nH]c1 | – | inactive: 0.257%
26 | CCn1c(=N)n(CC(=O)c2ccc(Cl)c(Cl)c2)c2ccccc21 | – | inactive: 15.1%

Row | Structure (SMILES) | Potency | activity change, positive = activation
27 | Brc1cccc(-c2cnco2)c1 | – | inactive: 3.43%
28 | Cc1ccc(NC(=O)c2ccc(S(=O)(=O)NCc3ccco3)cc2)nc1 | inconclusive: 25.9 µM [activator, single point] | –
29 | Fc1cccc(F)c1-n1c(CN2CCCCC2)csc1=S | – | inactive: -3.86%
30 | O=C(/C=C/c1ccco1)c1ccccc1O | inconclusive: 20.6 µM [activator, partial curve, poor fit] | –
31 | COc1ccc(C(=O)Nc2ccc3ccccc3n2)cc1OC | inconclusive: 5.17 µM [activator, partial curve, poor fit] | –
32 | Cc1ccc(OCCNS(=O)(=O)c2ccc(Cl)cc2)cc1 | – | inactive: 0.461%
33 | Cc1ccsc1C(=O)OCC(=O)c1ccc[nH]1 | inconclusive: 16.4 µM [activator, partial curve] | –
34 | C=CCc1c(OC(C)=O)c2ccccc2n(C)c1=O | – | inactive: -5.7%
35 | CC1CCN(C(=O)COC(=O)c2cccs2)CC1 | inconclusive: 18.3 µM [activator, single point] | –
36 | CC(=O)Nc1cc2nn(-c3ccccc3)nc2cc1C | active: 3.26 µM | –
37 | CNC(=O)NC(=O)COc1ccc2oc3c(c2c1)CCCC3 | inconclusive: 13 µM [activator, partial curve, poor fit] | –
38 | CCOC(=O)C(Cc1c[nH]c2ccccc12)NC(=O)c1ccccc1Br (stereo unspecified) | inconclusive: 18.3 µM [activator, partial curve, poor fit] | –
39 | c1cnc(N2CCN(c3ccc4ccccc4n3)CC2)nc1 | inconclusive: 1.83 µM [activator, partial curve, poor fit] | –
40 | CCc1ccc2nc(N(CCCN(C)C)C(=O)c3ccc(S(=O)(=O)N4CCc5ccccc5C4)cc3)sc2c1 | inconclusive: 29.1 µM [activator, single point] | –
41 | COc1ccccc1C(O)Cc1nc2ccccc2n1C (stereo unspecified) | inconclusive: 23.1 µM [activator, partial curve] | –
42 | Cn1c(=O)c2c(nc(NCc3ccc4c(c3)OCO4)n2Cc2ccccc2Cl)n(C)c1=O | – | inactive: 7.59%
43 | CC1=CC(C)(C)N=C(Nc2ccc(C)cc2)S1 | inconclusive: 16.4 µM [activator, partial curve, poor fit] | –
44 | COc1ccc(-c2noc(Cc3ccccc3OC)n2)cc1 | inconclusive: 32.6 µM [activator, partial curve, poor fit] | –
45 | Cn1cc(Br)c(C(=O)N/N=C/c2cc3c(cc2Cl)OCO3)n1 | inconclusive: 18.3 µM [activator, partial curve] | –
46 | C=CCOC(=O)c1sc(NC(=O)c2ccco2)nc1C | active: 20.6 µM | –
47 | O=C(CCc1nnc2ccc(N3CCCC3)nn12)Nc1ccc(F)cc1F | – | inactive: 1.3%
48 | Cc1ccc(C)c(C2=NNC(=NCc3ccccc3)SC2)c1 | – | inactive: -9.79%
49 | O=C(COc1ccc2c3c(c(=O)oc2c1)CCC3)N1CCCCC1 | inconclusive: 16.4 µM [activator, partial curve] | –
50 | O=C(COC(=O)c1ccccc1NCc1ccco1)Nc1ccc2c(c1)OCO2 | inconclusive: 23.1 µM [activator, partial curve, poor fit] | –
51 | COc1ccc2cc(C3CC(c4ccco4)=NN3S(=O)(=O)c3ccccc3)c(Cl)nc2c1 (stereo unspecified) | – | inactive: -4.89%
52 | Cc1cc(=O)oc2cc(NC(=O)c3cc(F)ccc3F)ccc12 | inconclusive: 2.91 µM [activator, single point] | –

Row | Structure (SMILES) | Potency | activity change, positive = activation
53 | S=C(Nc1ccc(Cl)cc1Cl)N1CCCC1 | inconclusive: 29.1 µM [activator, partial curve, poor fit] | –
54 | CCCCCCOc1ccc(-c2ccc(C#N)cn2)cc1 | inconclusive: 18.4 µM [activator, single point] | –
55 | Cc1cc(NC(=O)COC(=O)CCNS(=O)(=O)c2c(Cl)cccc2Cl)no1 | – | inactive: -0.0773%
56 | O=c1oc2ccccc2cc1-c1nc2ccccc2o1 | inconclusive: 6.51 µM [activator, partial curve, poor fit] | –
57 | O=C(NCc1ccco1)c1sc2cccc(F)c2c1Cl | active: 18.4 µM | –
58 | CCOC(=O)COn1c(=O)c(-c2cc3ccccc3o2)[n+]([O-])c2ccccc21 | inconclusive: 5.17 µM [activator, full curve] | –
59 | CC1CN(C(=O)c2cc([N+](=O)[O-])cc([N+](=O)[O-])c2)CC(C)O1 (stereo unspecified) | inconclusive: 20.6 µM [activator, partial curve] | –
60 | COc1cccc(-c2nn3c(-c4ccco4)nnc3s2)c1 | inconclusive: 20.6 µM [activator, partial curve, poor fit] | –
61 | COc1ccc(S(=O)(=O)NCc2nc3nc(C)cc(C)n3n2)cc1OC | – | inactive: 6.82%
62 | Cc1nc(C(=O)NNC(=O)c2cccc(Cl)c2)c(C(F)(F)F)o1 | – | inactive: 0.209%
63 | O=C(Oc1ccc(-c2ccccc2)cc1)N1CCOCC1 | inconclusive: 8.2 µM [activator, partial curve] | –
64 | COc1ccc(CCC(=O)N2c3ccccc3CC2C)cc1 (stereo unspecified) | inconclusive: 25.9 µM [activator, single point] | –
65 | CCCOc1ccc(CSc2ncn[nH]2)cc1 | inconclusive: 20.6 µM [activator, partial curve] | –
66 | Cc1cc(C(=O)O/N=C(\N)c2ccc(C(C)(C)C)cc2)no1 | – | inactive: 10.2%
67 | O=C(CNC(=O)c1cccs1)c1ccc(F)cc1 | inconclusive: 3.66 µM [activator, full curve] | –
68 | C=CCNC(=O)CN(c1ccccc1OCC)S(=O)(=O)c1ccc(C)cc1 | – | inactive: 0.19%
69 | CC(C(=O)N1CCCCC1)n1sc2ccccc2c1=O (stereo unspecified) | inconclusive: 14.6 µM [activator, partial curve, poor fit] | –
70 | O=C(Nc1ccc2nc(-c3ccccc3)[nH]c2c1)c1ccco1 | inconclusive: 10.3 µM [activator, partial curve] | –
71 | CC(=O)Nc1nc2ccc(Br)cc2s1 | inconclusive: 18.4 µM [activator, partial curve, poor fit] | –
72 | O=C(COc1ccccc1)Nc1ccc2c(c1)nc1n2CCSC1 | inconclusive: 18.4 µM [activator, partial curve, poor fit] | –
73 | Clc1ccc(-c2cc(-c3ccccn3)on2)c(Cl)c1 | inconclusive: 0.291 µM [activator, full curve] | –
74 | CN(C)c1cccc(NC(=O)CCc2ccccc2)c1 | inconclusive: 16.4 µM [activator, single point] | –
75 | C/C(=N\Nc1ccc(F)cc1F)c1ccccc1O | inconclusive: 23.1 µM [activator, partial curve, poor fit] | –
76 | CCC(C)NC(=O)c1cc(-c2ccc3c(c2)OCO3)on1 (stereo unspecified) | inconclusive: 6.51 µM [activator, partial curve] | –
